# According to patent US7235262B2, “Use of bioactive fraction from cow urine distillate (‘Go-mutra’) as a bio-enhancer of anti-infective, anti-cancer agents and nutrients” (Council of Scientific and Industrial Research, priority 2000, dated 2007):
# Test system: Escherichia coli
# Experiment: Broth assay for bio-enhancement of antibiotic killing, Gram-negative bacterium
# Conditions: cow urine distillate 1 μl/mL
SMILES,Survival fraction of viable cells upon treatment with antibiotic + cow urine distillate combination (antibiotic 4 μg/ml),Survival fraction of viable cells upon treatment with antibiotic + cow urine distillate combination (antibiotic 6 μg/ml),Survival fraction of viable cells upon treatment with antibiotic + cow urine distillate combination (antibiotic 8 μg/ml),Survival fraction of viable cells upon treatment with antibiotic + cow urine distillate combination (antibiotic 10 μg/ml),Survival fraction of viable cells upon treatment with antibiotic + cow urine distillate combination (antibiotic 30 μg/ml)
CC1(C)S[C@@H]2[C@H](NC(=O)[C@H](N)c3ccccc3)C(=O)N2[C@H]1C(=O)O [Ampicillin],0.60,0.02,0.01,–,–
CO[C@H]1/C=C/O[C@@]2(C)Oc3c(C)c(O)c4c(O)c(c(/C=N/N5CCN(C)CC5)c(O)c4c3C2=O)NC(=O)/C(C)=C\C=C\[C@H](C)[C@H](O)[C@@H](C)[C@@H](O)[C@@H](C)[C@H](OC(C)=O)[C@@H]1C [Rifampicin],–,–,–,0.17,0.007
